PubChem BioAssay AID504332 (National Center for Advancing Translational Sciences (NCATS), 2011)
Hit rate of the full screen: of about 350,000 compounds, about 31,000 (8.9%) were called active. Inconclusive results, whose numbers are uncertain, are shown with a selection of clear calls. The call rests on the fitted dose curve; in most records, active means well fitted inhibition curve with a large enough effect; inconclusive means small, poorly fitted or top-dose-only effect; inactive means no such curve, though single readings can be large or run the other way. Potencies of inconclusive entries are doubtful fits and often do not repeat.

molecular target: Histone-lysine N-methyltransferase EHMT2 (Homo sapiens) (UniProt Q96KQ7); assay: qHTS Assay for Inhibitors of Histone Lysine Methyltransferase G9a; conditions: G9a H3K9 monomethylation, AlphaScreen, 2 h; activity, negative = inhibition: at 59 µM (top of the series) unless noted; further: nearly all actives have a fitted effect of over 75% in size
Chain of UniProt Q96KQ7 (Q96KQ7 whole entry, looked up): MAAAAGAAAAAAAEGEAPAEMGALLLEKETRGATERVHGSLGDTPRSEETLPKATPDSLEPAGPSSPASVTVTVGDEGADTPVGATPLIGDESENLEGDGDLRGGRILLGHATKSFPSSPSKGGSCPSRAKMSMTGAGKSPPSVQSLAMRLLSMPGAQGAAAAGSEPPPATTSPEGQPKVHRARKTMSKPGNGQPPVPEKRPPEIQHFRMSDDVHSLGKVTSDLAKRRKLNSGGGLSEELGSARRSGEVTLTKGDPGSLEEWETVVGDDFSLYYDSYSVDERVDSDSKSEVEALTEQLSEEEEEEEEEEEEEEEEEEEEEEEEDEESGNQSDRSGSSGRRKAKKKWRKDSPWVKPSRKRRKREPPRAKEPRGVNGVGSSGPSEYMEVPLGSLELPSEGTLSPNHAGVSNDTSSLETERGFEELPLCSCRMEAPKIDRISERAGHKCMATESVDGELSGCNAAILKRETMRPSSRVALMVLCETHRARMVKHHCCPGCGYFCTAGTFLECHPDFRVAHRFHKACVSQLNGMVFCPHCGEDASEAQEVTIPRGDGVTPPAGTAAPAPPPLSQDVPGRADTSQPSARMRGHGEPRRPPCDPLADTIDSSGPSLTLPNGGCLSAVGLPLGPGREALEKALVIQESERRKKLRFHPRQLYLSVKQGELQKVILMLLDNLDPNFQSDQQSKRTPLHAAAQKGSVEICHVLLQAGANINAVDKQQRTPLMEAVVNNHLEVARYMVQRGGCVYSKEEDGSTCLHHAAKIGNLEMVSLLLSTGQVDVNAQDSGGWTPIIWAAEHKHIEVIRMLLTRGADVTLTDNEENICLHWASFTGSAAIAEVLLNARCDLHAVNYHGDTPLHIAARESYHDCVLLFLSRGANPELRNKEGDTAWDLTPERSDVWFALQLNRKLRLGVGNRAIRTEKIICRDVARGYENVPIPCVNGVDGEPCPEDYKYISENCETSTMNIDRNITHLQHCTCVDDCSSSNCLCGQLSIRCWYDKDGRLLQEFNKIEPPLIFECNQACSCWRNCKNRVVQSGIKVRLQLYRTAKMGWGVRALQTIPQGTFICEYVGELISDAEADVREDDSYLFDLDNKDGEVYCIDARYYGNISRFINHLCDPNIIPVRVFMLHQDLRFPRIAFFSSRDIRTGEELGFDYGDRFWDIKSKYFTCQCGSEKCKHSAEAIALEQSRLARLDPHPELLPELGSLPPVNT
How it was run: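 Methyltransferase reactions run at room temperature for 2 h (20 nM enzyme, 500 nM biotin-H3K9 peptide, 20 uM SAM) after a 15 min compound preincubation; product detected by AlphaScreen beads and anti-H3K9me1 antibody.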
On the % scale 0 is the no-effect control and ±100 the full control effect; potency means the concentration at half of the fitted maximal effect; tags describe the fitted curve by direction and shape.

SMILES | Potency | activity, negative = inhibition
O=C(CC1(O)C(=O)c2ccccc2C1=O)c1ccccc1 | inconclusive: 89.1 µM [inhibitor, single point] | –
O=C(Nc1ccc(N2CCCC2)c(Cl)c1)c1cccs1 | active: 28.2 µM | –
CNCCOc1ccccc1C(C)(C)C | active: 12.6 µM | –
CCc1nc2ccc(C(=O)NCCc3ccc(OC)cc3OC)cc2nc1CC | inactive | –
Cc1ccc(NC2=CC(=O)CC(C)(C)C2)c(N)c1 | inconclusive: 79.4 µM [inhibitor, partial curve, poor fit] | –
CCc1oc2ccccc2c1C(=O)CCN1CCCCC1 | active: 1.41 µM | –
Cn1c(N)c(C(=O)CSc2nc(N)cc(=O)[nH]2)c(=O)n(C)c1=O | inconclusive: 20 µM [inhibitor, partial curve, poor fit] | –
COc1ccccc1NC(=O)NC1CCCCCCC1 | inactive | –
CCC(CO)n1c(SCc2cc(=O)oc3cc(C)ccc23)nc2ccccc2c1=O (configuration not stated) | inconclusive: 28.2 µM [inhibitor, single point] | –
CC1(C)CC(=O)c2sc(NS(=O)(=O)c3ccc(Cl)cc3)nc2C1 | active: 35.5 µM | –
CNc1cncc(C(=O)O)c1 | inconclusive: 28.2 µM [inhibitor, partial curve, poor fit] | –
O=S(=O)(NCC1CCCO1)c1ccc(S(=O)(=O)N(Cc2ccccn2)C2CC2)cc1 (configuration not stated) | inconclusive: 28.2 µM [inhibitor, partial curve, poor fit] | –
O=C(Nc1cccc(S(=O)(=O)NC2=NCCC2)c1)c1cnc(Cl)c(Cl)c1 | inconclusive: 3.55 µM [inhibitor, single point] | –
Cn1cc(CC(=O)NCCCN2CCOCC2)c2ccccc21 | inconclusive: 89.1 µM [inhibitor, partial curve, poor fit] | –
COc1ccc2c(c1OC)C(=O)N1N=C(c3ccc(F)cc3)CC21 (configuration not stated) | inactive | –
CCC1CCCCN1S(=O)(=O)c1ccc(NC(=O)CSc2ncccc2C(=O)O)cc1 (configuration not stated) | inconclusive: 89.1 µM [inhibitor, single point] | –
O=C(O)CN1C(=O)/C(=C\c2cccc(OCc3ccc(F)cc3)c2)SC1=S | active: 44.7 µM | –
COc1ccccc1NC(=O)Cn1c(=O)n(-c2cccc(Cl)c2)c(=O)c2sc3ccccc3c21 | inactive | –
CCOc1ccc(Oc2nc(C)cc(OC)n2)nn1 | inconclusive: 89.1 µM [inhibitor, single point] | –
O=C(N/N=C/c1cccnc1)c1cccc(NC(=O)c2ccccc2Cl)c1 | inconclusive: 100 µM [inhibitor, single point] | –
Cc1ccc(N2CC(O)=C(c3nc4ccccc4c(=O)[nH]3)C2=N)cc1C | inconclusive: 50.1 µM [inhibitor, partial curve] | –
Cn1c(SCC(=O)Nc2cccc(C(=O)O)c2)nnc1-c1cc2cc(Br)ccc2o1 | inconclusive: 79.4 µM [inhibitor, single point] | –
O=C(COC(=O)c1n[nH]c(=O)c2ccccc12)Nc1ccccc1 | inconclusive: 50.1 µM [inhibitor, partial curve, poor fit] | –
Cc1ccccc1NC(=O)CN1C(=O)CSc2ccc(S(=O)(=O)N3CCCCC3)cc21 | inactive | –

SMILES | Potency | activity, negative = inhibition
Cc1ccc(-c2noc(C3CCCN(C(=O)C4CCCCC4)C3)n2)o1 (configuration not stated) | active: 11.2 µM | –
CC(C)(C)c1ccc(NC(=O)COc2ccc(-n3ccnc3)cc2)cc1 | inconclusive: 39.8 µM [inhibitor, single point] | –
CCN1CCN(Cc2ccc(NC(=O)c3ccc(C)c(NC(=O)N4CCNC4=O)c3)cc2C(F)(F)F)CC1 | inconclusive: 100 µM [inhibitor, single point] | –
C=CCn1c(=S)[nH]c2cc(C(=O)Nc3ccc(F)cc3)ccc2c1=O | inactive | –
Cc1ccc(S(=O)(=O)Oc2ccc(/C=N/N=C3/NC(=O)C(CC(=O)O)S3)cc2)cc1 (configuration not stated) | inactive | –
O=C(COC(=O)c1cc([N+](=O)[O-])ccc1N1CCOCC1)Nc1ccc(Cl)cn1 | inactive | –
O=C(N/N=C(\Cc1ncc[nH]1)c1ccccc1)c1ccccc1 | inactive | –
CCc1ccccc1NC(=O)CCCSc1nc2ccccc2s1 | inactive | –
CC(=O)c1ccc(NC(=O)CNC2CCCCC2)cc1 | active: 79.4 µM | –
CC(Oc1ccc(Cl)cc1Cl)C(=O)NC1CCSC1=O (configuration not stated) | inactive | –
O=C(Nc1cccc(NC(=O)c2cccc(F)c2)n1)c1cccc(F)c1 | inconclusive: 89.1 µM [inhibitor, single point] | –
CCC1CCc2sc(C(=O)NC3CCN(Cc4ccccc4)CC3)cc2C1 (configuration not stated) | inconclusive: 35.5 µM [inhibitor, partial curve, poor fit] | –
Cc1ccc(-c2csc(NNC(=O)c3ccccc3)n2)cc1 | inconclusive: 39.8 µM [inhibitor, single point] | –
CCN(CC)S(=O)(=O)c1ccc2c(c1)nc(SC(C)C(=O)NCC1CCCO1)n2CC (configuration not stated) | active: 79.4 µM | –
CCOc1ccc(/C(O)=C2/C(=O)C(=O)N(CCOCCO)C2c2ccc(F)cc2)cc1 (configuration not stated) | – | inconclusive: -66.4% [inhibitor]
Cc1oc(-c2ccccc2)cc1C(=O)Nc1cccc(/C=C/C(=O)O)c1 | inactive | –
Cc1nc(SCC(=O)Nc2cc(C)on2)c2c(C)c(C)sc2n1 | inconclusive: 89.1 µM [inhibitor, single point] | –
COc1ccc(C(C(=O)NC(C)(C)C)N(C(=O)CCC(=O)Nc2cc(C)on2)c2cccc(C)c2C)cc1 (configuration not stated) | inactive | –
COc1ccc(C(C(=O)NC2CCCCC2)N(C(=O)Cc2c[nH]c3ccccc23)c2ccccc2)cc1OC (configuration not stated) | inconclusive: 15.8 µM [inhibitor, single point] | –
CCOc1ncccc1C(=O)OCC(=O)Nc1ccc(C)c(S(=O)(=O)N2CCOCC2)c1 | inconclusive: 79.4 µM [inhibitor, single point] | –
CC(C)CCn1c(=O)c2sccc2n2c(CCCC(=O)Nc3ccc(C(C)C)cc3)nnc12 | inactive | –
CC(=O)N1CCc2cc(S(=O)(=O)NC(Cc3ccccc3)C(=O)O)ccc21 (configuration not stated) | inactive | –
COc1ccc(N2CCN(c3nc4ccccc4n4c(C)nnc34)CC2)cc1 | inactive | –
